Measurements taken from the supplement of paper PMC12217912.
The list shows a part of the results. Sequences were assembled here from the parent chain. Inactive controls read about 0.05.

B1: TEV protease; numbered along this chain (parent)
chain: MGESLFKGPRDYNPISSSICHLTNESDGHTTSLYGIGFGPFIITNKHLFRRNNGTLVVQSLHGVFKVKDTTTLQQHLVDGRDMIIIRMPKDFPPFPQKLKFREPQREERICLVTTNFQTKSMSSMVSDTSCTFPSGDGIFWKHWIQTKDGQCGSPLVSTRDGFIVGIHSASNFTNTNNYFTSVPKNFMELLTNQEAQQWVSGWRLNADSVLWGGHKVFMVKPEEPFQPVKEATQL

Variants of: B1
Experiment: raw area under fraction-flipped curve 0-4 h after induction (AUC4h, not background-subtracted), DNA-recorder readout of cleavage of the substrate (dimensionless); higher = more cleavage of the substrate by the protease variant
Conditions: temperature: 34 °C; time window: 0-4 h after rhamnose induction
Experimental: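 In vivo DNA recorder in E. coli TOP10(DE3) ΔrhaA at 34 °C. Each TEVp single-site mutant (parent TEVp 0) is paired with a single-site variant of the 7-mer TEVs (canonical ENLYFQ|S). The substrate sits between flexible linkers in a Bxb1-sfGFP-TEVs-SsrA fusion, so cleavage stabilises Bxb1 and speeds flipping of a recombination array, read by NGS. The value is the raw area under the fraction-flipped curve over 0-4 h after rhamnose induction (AUC4h), with ≥20 reads per time point. It is not background-subtracted; inactive controls average about 0.047.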
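Also: Bxb1 expression induced with 0.2% (w/v) L-rhamnose at OD600 near 0.5, cultures sampled hourly, flipped fraction per protease–substrate barcode pair counted by paired-end Illumina sequencing.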

| Variant | area with substrate CNLYFQS | area with substrate DNLYFQS | area with substrate FNLYFQS | area with substrate HNLYFQS | area with substrate INLYFQS | area with substrate LNLYFQS | area with substrate MNLYFQS | area with substrate NNLYFQS | area with substrate PNLYFQS | area with substrate RNLYFQS | area with substrate SNLYFQS | area with substrate TNLYFQS | area with substrate WNLYFQS | area with substrate YNLYFQS | area with substrate GNLYFQS | area with substrate KNLYFQS | area with substrate VNLYFQS | area with substrate QNLYFQS |
| --- | --- | --- | --- | --- | --- | --- | --- | --- | --- | --- | --- | --- | --- | --- | --- | --- | --- | --- |
| R109L | 0.0696 | 0.0724 | 0.0594 | 0.0615 | 0.0632 | 0.0617 | 0.0614 | 0.0514 | 0.0654 | 0.0609 | 0.0641 | 0.0646 | 0.0558 | 0.0741 | – | – | – | – |
| N177P | 0.0789 | 0.0547 | 0.0627 | 0.0581 | 0.0564 | 0.0679 | 0.0318 | – | – | – | 0.0589 | 0.0677 | 0.0647 | 0.0551 | 0.0751 | 0.0603 | – | – |
| E189T | 0.0528 | 0.0685 | – | 0.0627 | 0.0838 | – | 0.0509 | – | – | – | 0.0635 | 0.0882 | 0.0639 | – | – | – | – | – |
| E189C | 0.0613 | 0.0353 | 0.0844 | – | – | 0.0617 | 0.0554 | – | 0.064 | – | 0.0844 | 0.0258 | – | 0.0546 | 0.063 | – | 0.0659 | – |
| G136C | 0.0673 | 0.0833 | – | 0.0663 | 0.0526 | – | 0.0665 | 0.0685 | 0.0778 | 0.0673 | 0.0749 | 0.051 | 0.0558 | 0.0556 | – | 0.0566 | – | – |
| T147R | 0.0398 | 0.048 | – | 0.0576 | 0.0454 | 0.0602 | 0.0572 | 0.0445 | 0.0542 | – | 0.0618 | 0.0636 | 0.0665 | 0.0404 | 0.0533 | – | – | – |
| S182R | 0.0609 | 0.0601 | – | 0.0397 | 0.0418 | 0.0593 | 0.0656 | – | 0.0635 | – | – | – | 0.048 | – | 0.0738 | – | – | – |
| K100Y | 0.0487 | 0.0501 | – | 0.0893 | – | – | – | – | 0.0508 | 0.0389 | – | 0.0371 | 0.0629 | – | 0.072 | – | 0.0572 | – |
| V229K | 0.0644 | 0.0789 | 0.0524 | 0.072 | 0.0595 | 0.0731 | – | – | 0.0668 | – | 0.0506 | 0.0574 | – | – | – | – | 0.0695 | – |
| F218N | 0.0439 | 0.047 | 0.0578 | 0.0467 | – | 0.0587 | – | – | 0.0663 | – | – | 0.0728 | 0.0685 | 0.0819 | 0.0489 | 0.0663 | 0.0593 | – |
| D79K | 0.0437 | 0.09 | 0.06 | – | – | 0.0555 | 0.0671 | 0.0609 | – | – | 0.0733 | 0.0664 | 0.0941 | 0.0677 | 0.0688 | – | – | – |
| L99Q | 0.0682 | 0.0653 | – | 0.0479 | 0.075 | – | 0.0698 | 0.052 | – | 0.0676 | – | – | 0.0237 | – | – | – | – | – |
| H76L | 0.0526 | 0.0822 | – | 0.0643 | – | – | 0.0622 | 0.0707 | 0.0694 | – | 0.0711 | – | 0.0513 | 0.0574 | – | 0.0697 | 0.067 | – |
| W199F | 0.0694 | 0.0572 | 0.0579 | 0.0535 | 0.0602 | 0.0609 | – | 0.0552 | – | – | – | 0.0608 | 0.0658 | 0.0557 | – | 0.0541 | 0.0616 | – |
| V126I | 0.0774 | 0.0616 | – | 0.0721 | 0.0627 | – | 0.0903 | – | 0.0758 | – | – | 0.0617 | 0.063 | 0.0618 | – | 0.075 | – | – |
| K230S | 0.0399 | 0.0788 | 0.0665 | 0.0624 | 0.05 | 0.0761 | – | 0.0567 | 0.0556 | – | 0.0709 | 0.066 | 0.0536 | 0.0509 | – | – | – | – |
| Q146P | 0.0483 | 0.0957 | – | 0.0675 | – | 0.0691 | – | – | 0.0724 | – | – | 0.0625 | 0.073 | – | 0.0754 | – | 0.0702 | – |
| D137V | 0.0929 | 0.0783 | – | 0.0607 | 0.0745 | 0.08 | – | – | – | 0.0714 | 0.0683 | 0.0545 | 0.0679 | – | – | – | – | – |
| P9R | 0.0797 | 0.0926 | – | 0.0679 | – | 0.0624 | 0.0622 | – | – | – | 0.081 | 0.069 | – | 0.0947 | 0.0766 | 0.0598 | 0.068 | – |
| L211M | 0.064 | 0.0875 | 0.0525 | 0.0602 | 0.0922 | – | – | 0.0893 | 0.11 | 0.0604 | 0.0683 | 0.0684 | 0.0642 | – | 0.0789 | 0.0655 | 0.0674 | – |
| G54W | 0.0521 | 0.0577 | – | 0.0512 | 0.0634 | 0.0621 | 0.0422 | 0.0555 | 0.0584 | – | – | 0.0603 | 0.0576 | 0.054 | – | 0.0608 | – | – |
| G54A | 0.0628 | 0.0656 | 0.0557 | 0.0599 | – | 0.0599 | – | 0.0651 | 0.0787 | – | 0.067 | 0.0621 | 0.0613 | 0.0615 | – | 0.0604 | 0.0501 | – |
| T23E | 0.0708 | 0.0684 | 0.0445 | 0.0614 | – | 0.0458 | 0.0445 | 0.0601 | 0.0725 | 0.0712 | 0.0556 | 0.0618 | 0.0555 | 0.0746 | 0.0657 | – | – | – |
| Q75A | 0.037 | 0.118 | – | – | 0.0413 | 0.0693 | 0.0537 | 0.0679 | 0.0366 | – | 0.0645 | 0.0658 | 0.0574 | 0.0725 | – | – | – | – |
| T71V | 0.0789 | 0.0794 | 0.0558 | 0.0589 | 0.0783 | 0.0558 | 0.0515 | 0.0561 | 0.0604 | – | 0.0587 | 0.0656 | 0.0656 | 0.0713 | 0.0709 | 0.0732 | 0.052 | – |
| K68Y | 0.0575 | 0.072 | 0.0508 | 0.06 | – | – | 0.0634 | 0.0597 | 0.073 | – | 0.0644 | 0.0659 | – | – | – | 0.0721 | – | – |
| Q118Y | 0.0703 | 0.0754 | 0.0427 | 0.0665 | – | – | 0.0895 | 0.0937 | – | – | – | – | 0.0491 | – | 0.0513 | 0.087 | – | 0.0484 |
| E195N | 0.0665 | 0.0786 | 0.0599 | – | 0.0324 | 0.0652 | 0.0417 | 0.0656 | 0.0544 | – | 0.0725 | 0.0693 | 0.0558 | 0.0502 | 0.059 | 0.0725 | – | – |
| E195R | 0.0761 | 0.0569 | 0.0495 | 0.0666 | – | 0.0731 | 0.0539 | 0.053 | – | – | – | 0.058 | 0.0634 | 0.0596 | 0.0721 | 0.0613 | 0.0811 | – |
| I85Y | 0.0625 | 0.0521 | – | – | – | 0.0555 | 0.0524 | 0.0573 | 0.0538 | 0.0497 | – | 0.0581 | 0.0538 | 0.0432 | 0.0671 | 0.0733 | 0.0678 | – |
